Data from a collection of fitness landscapes (doi:10.1126/science.1257360).
This is one part of the list.

B1: PhoQ; a variant is named by its letters at X, in order, P23837 (parent)
chain: MKKLLRLFFPLSLRVRFLLATAAVVLVLSLAYGMVALIGYSVSFDKTTFRLLRGESNLFYTLAKWENNKLHVELPENIDKQSPTMTLIYDENGQLLWAQRDVPWLMKMIQPDWLKSNGFHEIEADVNDTSLLLSGDHSIQQQLQEVREDDDDAEMTHSVAVNVYPATSRMPKLTIVVVDTIPVELKSSYMVWSWFIYVLSANLLLVIPLLWVAAWWSLRPIEALAKEVRELEEHNRELLNPATTRELTSLVRNLNRLLKSERERYDKYRTTLTDLTHSLKTPLXXLQXXLRSLRSEKMSVSDAEPVMLEQISRISQQIGYYLHRASMRGGTLLSRELHPVAPLLDNLTSALNKVYQRKGVNISLDISPEISFVGEQNDFVEVMGNVLDNACKYCLEFVEISARQTDEHLYIVVEDDGPGIPLSKREVIFDRGQRVDTLRPGQGVGLAVAREITEQYEGKIVAGESMLGGARMEVIFGRQHSAPKDE

Variants of: B1
Assay: enrichment ratio after two sorts for PhoP signalling (ratio (wild type AVST 3.29)); higher = more functional
Settings: with PhoP (E. coli)

Variant | enrichment ratio
FYAN | ≤ 0.25
GLEK | ≤ 0.25
GWKL | ≤ 0.25
MCWW | ≤ 0.25
GFVF | 0.32
HDGR | ≤ 0.25
VHWC | ≤ 0.25
RLDT | ≤ 0.25
NYKG | ≤ 0.25
RCPQ | ≤ 0.25
ANTP | ≤ 0.25
AKRC | ≤ 0.25
KSME | ≤ 0.25
MPMM | ≤ 0.25
MPLC | ≤ 0.25
MVIL | ≤ 0.25
SNIV | 9.73
PHHP | ≤ 0.25
GPVP | ≤ 0.25
DDNF | ≤ 0.25
WCGW | ≤ 0.25
NQCN | ≤ 0.25
SIWG | ≤ 0.25
VMPV | ≤ 0.25

Variant | enrichment ratio
FFSH | ≤ 0.25
MTMT | ≤ 0.25
GPHY | ≤ 0.25
SRNL | ≤ 0.25
QLWS | ≤ 0.25
QTVQ | ≤ 0.25
NWPY | ≤ 0.25
MDWA | ≤ 0.25
HICQ | ≤ 0.25
LERY | ≤ 0.25
HTRG | ≤ 0.25
NTMA | ≤ 0.25
PHYC | ≤ 0.25
MFHP | ≤ 0.25
SKGN | ≤ 0.25
MICF | 7.24
GCVN | 1.85
FSDY | ≤ 0.25
SKAE | ≤ 0.25
HCLQ | ≤ 0.25
ERND | ≤ 0.25
PIWV | ≤ 0.25
TTLQ | 10.7
VVRR | ≤ 0.25

Variant | enrichment ratio
EVPD | ≤ 0.25
DVEF | ≤ 0.25
SRDN | ≤ 0.25
QWPP | ≤ 0.25
GCPK | ≤ 0.25
WNLP | ≤ 0.25
TMED | ≤ 0.25
RITQ | ≤ 0.25
VAGP | ≤ 0.25
GVGQ | ≤ 0.25
KLHY | ≤ 0.25
HYRK | ≤ 0.25
ESQS | ≤ 0.25
FVHG | ≤ 0.25
QPGN | ≤ 0.25
IRMQ | ≤ 0.25
SSLT | 12
RVPH | ≤ 0.25
QNTN | ≤ 0.25
EFGR | ≤ 0.25
LSGM | ≤ 0.25
SRNY | ≤ 0.25
NGMT | ≤ 0.25
LADG | ≤ 0.25

Variant | enrichment ratio
SFRA | ≤ 0.25
IHVY | ≤ 0.25
VVYV | ≤ 0.25
FASH | ≤ 0.25
QLLK | ≤ 0.25
QNHS | ≤ 0.25
RPHV | ≤ 0.25
SMVQ | 9.3
HPMW | ≤ 0.25
KLLE | ≤ 0.25
VTGP | ≤ 0.25
SFGD | ≤ 0.25
QNMP | ≤ 0.25
QCVW | ≤ 0.25
QARG | ≤ 0.25
NMVP | ≤ 0.25
WDMY | ≤ 0.25
LMAD | ≤ 0.25
SDHC | ≤ 0.25
IIFM | ≤ 0.25
FPFQ | ≤ 0.25
FEPT | ≤ 0.25
WERV | ≤ 0.25
IRNS | ≤ 0.25

Variant | enrichment ratio
VDTL | ≤ 0.25
QPHK | ≤ 0.25
IYTE | ≤ 0.25
YRCS | ≤ 0.25
PVHM | ≤ 0.25
FPPN | ≤ 0.25
QIGN | ≤ 0.25
RNYH | ≤ 0.25
MKPT | ≤ 0.25
HVWI | ≤ 0.25
LKQI | 0.57
KVHH | ≤ 0.25
GSLC | 9.17
SRVC | ≤ 0.25
IATD | ≤ 0.25
QYSV | ≤ 0.25
IEES | ≤ 0.25
TTWL | 4.31
SEAI | 7.14
KFSF | ≤ 0.25
PLGN | ≤ 0.25
LCWG | ≤ 0.25
RFYY | ≤ 0.25
LWAP | ≤ 0.25

Variant | enrichment ratio
MTHM | 1.64
SAHV | ≤ 0.25
WLRV | ≤ 0.25
RHLD | ≤ 0.25
YPWA | ≤ 0.25
IQTC | ≤ 0.25
VEWL | ≤ 0.25
MIKI | ≤ 0.25
PGPD | ≤ 0.25
FDFS | ≤ 0.25
TCWT | 2.84
EVYT | ≤ 0.25
CALR | ≤ 0.25
RWKC | ≤ 0.25
SRPQ | ≤ 0.25
DHWM | ≤ 0.25
TEFN | 18.2
RCQC | ≤ 0.25
LQQA | ≤ 0.25
INQP | ≤ 0.25
HARN | ≤ 0.25
AWWV | ≤ 0.25
VRNK | ≤ 0.25
HLGL | ≤ 0.25

Variant | enrichment ratio
ERMI | ≤ 0.25
FYMK | ≤ 0.25
MFFC | ≤ 0.25
IVRG | 0.714
RPTG | ≤ 0.25
QPNK | ≤ 0.25
EGTT | ≤ 0.25
VVIM | ≤ 0.25
GKDR | ≤ 0.25
ARPR | ≤ 0.25
FYNI | ≤ 0.25
DERL | ≤ 0.25
QELG | 0.792
PFIP | ≤ 0.25
AVNL | ≤ 0.25
NFHW | ≤ 0.25
GHMW | ≤ 0.25
IYDN | ≤ 0.25
NKPQ | ≤ 0.25
LRDP | ≤ 0.25
PREN | ≤ 0.25
SNCY | 7.63
HPIS | ≤ 0.25
PIRA | ≤ 0.25

Variant | enrichment ratio
VSLD | ≤ 0.25
ISMG | 1.17
LYGK | ≤ 0.25
FPGR | ≤ 0.25
NRFQ | 4.31
ATWK | ≤ 0.25
KIPQ | ≤ 0.25
PHSK | ≤ 0.25
NIQM | ≤ 0.25
DFYF | ≤ 0.25
MTPT | ≤ 0.25
TKCM | 46.1
WHVS | ≤ 0.25
HKGP | ≤ 0.25
IHYS | ≤ 0.25
FHCK | ≤ 0.25
TWAP | ≤ 0.25
IVVG | ≤ 0.25
DWNF | ≤ 0.25
ACNT | ≤ 0.25
KEPG | ≤ 0.25
FAVE | ≤ 0.25
NLYM | ≤ 0.25
NNFD | ≤ 0.25

Variant | enrichment ratio
RHYN | ≤ 0.25
PRYQ | ≤ 0.25
VQDI | ≤ 0.25
NVVV | ≤ 0.25
MNLP | ≤ 0.25
AYTD | ≤ 0.25
ILHA | ≤ 0.25
ESQE | ≤ 0.25
YWWH | ≤ 0.25
DYWT | ≤ 0.25
SRGG | ≤ 0.25
YNEH | ≤ 0.25
TSDF | 4.52
WTEP | ≤ 0.25
FAHV | ≤ 0.25
IFRS | ≤ 0.25
RNRQ | ≤ 0.25
YNFP | ≤ 0.25
LVRH | ≤ 0.25
MPTP | ≤ 0.25
IWGK | ≤ 0.25
ELEV | ≤ 0.25
SCTL | 14.2
GVMK | ≤ 0.25

Variant | enrichment ratio
LSQC | 0.388
KITG | ≤ 0.25
DDVV | 2.72
GHED | ≤ 0.25
PQLR | ≤ 0.25
FHYG | ≤ 0.25
KSGS | ≤ 0.25
EFPS | ≤ 0.25
YMGG | ≤ 0.25
KSSA | ≤ 0.25
SIQY | ≤ 0.25
WLPR | ≤ 0.25
GKRV | ≤ 0.25
PPPG | ≤ 0.25
SCVE | ≤ 0.25
ATYD | ≤ 0.25
PLTW | ≤ 0.25
SPGY | ≤ 0.25
ARGK | ≤ 0.25
PMFN | ≤ 0.25
YDYP | ≤ 0.25
DTSN | ≤ 0.25
GIQI | ≤ 0.25
TMRR | ≤ 0.25

Variant | enrichment ratio
PSPP | ≤ 0.25
KHHQ | ≤ 0.25
INMR | ≤ 0.25
HRSD | ≤ 0.25
KGKL | ≤ 0.25
AQWP | ≤ 0.25
WIQR | ≤ 0.25
NPFT | ≤ 0.25
AMPR | ≤ 0.25
RRCV | ≤ 0.25
WFSF | ≤ 0.25
GDSM | 2.79
QAPP | ≤ 0.25
PEHW | ≤ 0.25
HTLY | ≤ 0.25
RGAA | ≤ 0.25
ELAC | ≤ 0.25
WYLQ | ≤ 0.25
TYPW | ≤ 0.25
IQLF | ≤ 0.25
SMQY | ≤ 0.25
HLIL | ≤ 0.25
SPCH | ≤ 0.25
TNNM | ≤ 0.25

Variant | enrichment ratio
PVIL | ≤ 0.25
YFQA | ≤ 0.25
QHLA | ≤ 0.25
KDVD | ≤ 0.25
KEES | ≤ 0.25
HFHK | ≤ 0.25
QLNR | ≤ 0.25
DKIA | ≤ 0.25
PWDI | ≤ 0.25
LGWN | ≤ 0.25
YTSV | ≤ 0.25
KPWP | ≤ 0.25
PVHF | ≤ 0.25
LGFN | 0.331
YVWL | 0.577
SVPQ | ≤ 0.25
VYPD | ≤ 0.25
AARA | ≤ 0.25
NWNI | ≤ 0.25
GGEF | ≤ 0.25
WKLV | ≤ 0.25
MQFA | ≤ 0.25
VRWC | ≤ 0.25
FNAQ | ≤ 0.25

Variant | enrichment ratio
IFQW | ≤ 0.25
ARCG | ≤ 0.25
GMYI | ≤ 0.25
DFIF | ≤ 0.25
RRTW | ≤ 0.25
MDFR | ≤ 0.25
NTWS | ≤ 0.25
ITPY | ≤ 0.25
TLHP | ≤ 0.25
PLPN | ≤ 0.25
WKHW | ≤ 0.25
NVQF | ≤ 0.25
HYHL | ≤ 0.25
DDCH | ≤ 0.25
DKGV | ≤ 0.25
FRNT | ≤ 0.25
PLNN | ≤ 0.25
MHYA | ≤ 0.25
